Hit rate of the full screen: of about 350,000 compounds, about 31,000 (8.9%) were called active. Inconclusive means that the source gave no clear call. Such entries were picked first, then a sample of the others. The call rests on the fitted dose curve; in most records, active means well fitted inhibition curve with a large enough effect; inconclusive means small, poorly fitted or top-dose-only effect; inactive means no such curve, though single readings can be large or run the other way. A potency beside an inconclusive call is a rough fit, not a confirmed value.
biological target: Histone-lysine N-methyltransferase EHMT2 (Homo sapiens) (UniProt Q96KQ7); experiment: qHTS Assay for Inhibitors of Histone Lysine Methyltransferase G9a; details: G9a H3K9 monomethylation, AlphaScreen, 2 h; activity, negative = inhibition: at 59 µM (top of the series) unless noted; further: nearly all actives have a fitted effect of over 75% in size
Summary of the method: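 Chemiluminescent proximity detection of H3K9 monomethylation, read after 10 min bead incubation in the dark. Reaction: 20 nM G9a, 500 nM biotin-H3K9 peptide, 20 uM SAM cofactor, 2 h, room temperature, following 15 min enzyme-compound preincubation.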
On the % scale 0 is the no-effect control and ±100 the full control effect; potency means the concentration at half of the fitted maximal effect; tags describe the fitted curve by direction and shape.

Sequence of UniProt Q96KQ7 (Q96KQ7 whole entry, looked up): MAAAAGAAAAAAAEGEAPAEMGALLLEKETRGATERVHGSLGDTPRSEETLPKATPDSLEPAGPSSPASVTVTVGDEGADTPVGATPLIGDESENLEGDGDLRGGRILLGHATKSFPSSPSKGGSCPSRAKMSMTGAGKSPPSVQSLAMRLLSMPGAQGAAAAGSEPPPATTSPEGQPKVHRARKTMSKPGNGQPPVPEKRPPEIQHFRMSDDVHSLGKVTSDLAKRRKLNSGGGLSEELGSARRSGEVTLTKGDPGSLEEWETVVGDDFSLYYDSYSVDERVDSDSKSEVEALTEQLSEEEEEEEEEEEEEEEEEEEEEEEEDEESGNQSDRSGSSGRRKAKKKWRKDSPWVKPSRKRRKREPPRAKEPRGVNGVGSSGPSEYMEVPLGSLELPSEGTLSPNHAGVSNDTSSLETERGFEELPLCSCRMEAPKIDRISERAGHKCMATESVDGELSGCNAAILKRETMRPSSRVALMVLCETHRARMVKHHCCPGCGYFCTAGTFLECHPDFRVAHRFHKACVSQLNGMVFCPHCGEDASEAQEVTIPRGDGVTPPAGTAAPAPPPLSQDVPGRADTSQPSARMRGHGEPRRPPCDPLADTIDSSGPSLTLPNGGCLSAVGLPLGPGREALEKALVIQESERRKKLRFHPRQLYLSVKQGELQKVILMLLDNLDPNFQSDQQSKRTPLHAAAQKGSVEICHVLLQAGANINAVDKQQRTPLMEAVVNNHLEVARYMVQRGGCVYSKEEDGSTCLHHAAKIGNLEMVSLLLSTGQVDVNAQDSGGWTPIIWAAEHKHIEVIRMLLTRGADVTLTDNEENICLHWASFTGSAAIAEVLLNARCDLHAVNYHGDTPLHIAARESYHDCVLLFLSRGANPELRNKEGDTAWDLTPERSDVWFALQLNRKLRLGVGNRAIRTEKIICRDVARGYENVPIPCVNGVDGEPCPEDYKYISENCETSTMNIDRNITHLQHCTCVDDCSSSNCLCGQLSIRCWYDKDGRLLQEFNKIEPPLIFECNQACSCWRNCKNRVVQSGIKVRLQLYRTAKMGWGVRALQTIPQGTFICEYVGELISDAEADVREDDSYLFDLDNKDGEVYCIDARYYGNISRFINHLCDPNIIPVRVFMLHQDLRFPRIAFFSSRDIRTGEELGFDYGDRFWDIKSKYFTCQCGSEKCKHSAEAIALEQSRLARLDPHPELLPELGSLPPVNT

**Q.** With `Cn1c(=O)c2cc(S(=O)(=O)N3CCC(c4ccccc4)CC3)ccc2n(C)c1=O` as the compound, how does the activity, negative = inhibition read?
**A.** inactive: -19% [at 12.7 µM]

**Q.** `CCOC(=O)c1c(NC(=O)C2C3C=CC(C3)C2(C)C(=O)O)sc2c1CCCC2` (stereo unspecified) was tested. Which “activity, negative = inhibition” value did it give?
**A.** inactive: -14.9%

**Q.** `COCCNC(=S)NN=C1CCCCC1` was tested. Which Potency did it give?
**A.** active: 3.16 µM

**Q.** `COc1ccc(-n2c(O)c(C=Nc3ccccc3)c3ccccc3c2=O)cc1OC` was tested. Which “activity, negative = inhibition” value did it give?
**A.** inactive: 2.1% [at 102 µM]

**Q.** For `COc1ccc2c(c1)C(c1ccc(C)o1)=NNC(c1ccccc1)=N2`, which Potency is on record?
**A.** active: 39.8 µM

**Q.** For `CCCNC(=S)N1CCC(n2cnc3ccccc32)CC1`, which Potency is on record?
**A.** inconclusive: 50.1 µM [inhibitor, partial curve, poor fit]

**Q.** With `CC1(C)C(c2ccco2)=[N+]([O-])C2(CCCCC2=O)N1O` (stereo unspecified) as the compound, how does the Potency read?
**A.** inconclusive: 25.1 µM [inhibitor, single point]

**Q.** How did the Potency turn out when `CCCc1cc(=O)[nH]c(SCC(=O)N2N=C(c3ccc(Cl)cc3)CC2c2ccco2)n1` (stereo unspecified) was run?
**A.** inconclusive: 25.1 µM [inhibitor, single point]

**Q.** Which “activity, negative = inhibition” value does the source give for `O=C(c1cccnc1NCc1ccccc1)N1CCOCC1` here?
**A.** inactive: -30.2%

**Q.** How did the Potency turn out when `O=C(c1cccc([N+](=O)[O-])c1)N(c1ccccn1)c1ccccn1` was run?
**A.** inconclusive: 79.4 µM [inhibitor, single point]

**Q.** For `Clc1ccc(N=c2ssnc2Cl)cc1`, which Potency is on record?
**A.** active: 1.58 µM

**Q.** With `COc1ccc(S(=O)(=O)NC2CC2)cc1C(=O)N1CCOCC1` as the compound, how does the “activity, negative = inhibition” value read?
**A.** inactive: -6.59% [at 102 µM]

**Q.** For `CCc1cnc2c(c1SCC(=O)Nc1ccc(OC)c(OC)c1)c(=O)n(C)c(=O)n2C`, which “activity, negative = inhibition” value is on record?
**A.** inactive: 2.01%

**Q.** `Cc1cccc(NC(=S)NNC(=O)Cc2ccccc2)c1` was tested. Which Potency did it give?
**A.** active: 15.8 µM

**Q.** How did the “activity, negative = inhibition” value turn out when `COC(=O)c1c(-c2ccc(Cl)cc2)noc1N1CCN(c2cccc(C)c2C)CC1` was run?
**A.** inactive: 8.31%

**Q.** How did the Potency turn out when `O=c1oc2ccccc2cc1-c1csc(Cc2nc(-c3ccc(Cl)cc3)cs2)n1` was run?
**A.** inconclusive: 39.8 µM [inhibitor, single point]

**Q.** For `O=C(COC(=O)c1ccc2ccccc2c1O)Nc1ccccc1`, which Potency is on record?
**A.** inconclusive: 89.1 µM [inhibitor, single point]

**Q.** `COc1cc(C2CC(=O)N3CN(Cc4ccccc4)CSC3=C2C#N)ccc1OCc1ccccc1` (stereo unspecified) was tested. Which Potency did it give?
**A.** active: 0.891 µM

**Q.** Which activity, negative = inhibition does the source give for `O=C(NCCC1CCCCN1S(=O)(=O)c1ccc(Cl)cc1)C(=O)NCc1ccco1` (stereo unspecified) here?
**A.** inactive: -5.87% [at 0.501 µM]

**Q.** For `CC(=O)NC1C(Oc2ccccc2C)OC2COC(c3ccco3)OC2C1O` (stereo unspecified), which “activity, negative = inhibition” value is on record?
**A.** inactive: 4.75%

**Q.** With `CCCC1C(=O)N2C(N(C)C)=Nc3ccc(C)cc3N2C1=O` (stereo unspecified) as the compound, how does the Potency read?
**A.** active: 3.55 µM

**Q.** `Cn1cc([N+](=O)[O-])c(C(=O)Nc2ccc(-c3nc4ccccc4[nH]3)cc2)n1` was tested. Which “activity, negative = inhibition” value did it give?
**A.** inactive: -8.55%

**Q.** With `NS(=O)(=O)c1ccc(CNC(=O)c2ccc(S(=O)(=O)NCc3ccco3)cc2)cc1` as the compound, how does the activity, negative = inhibition read?
**A.** inactive: 25.2% [at 12.7 µM]

**Q.** `CC(CN1CCCCC1)OC(=O)c1ccccc1Cl` (stereo unspecified) was tested. Which Potency did it give?
**A.** inconclusive: 0.282 µM [inhibitor, full curve, poor fit]

**Q.** For `Cn1c(=O)c(C(=O)COC(=O)c2cc(-c3ccccc3)nc3ccccc23)c(N)n(Cc2ccccc2)c1=O`, which Potency is on record?
**A.** active: 79.4 µM

**Q.** With `COc1ccc2ccc(O)c(CN3CCN(S(=O)(=O)c4cc([N+](=O)[O-])ccc4C)CC3)c2c1` as the compound, how does the Potency read?
**A.** active: 1.26 µM

**Q.** Which Potency does the source give for `Cc1nc2c3ccccc3n(Cc3ccccc3F)c2s1` here?
**A.** inconclusive: 39.8 µM [inhibitor, single point]

**Q.** Which “activity, negative = inhibition” value does the source give for `c1ccc(CSc2nc3ncncc3[nH]2)cc1` here?
**A.** inactive: -47.7% [at 102 µM]

**Q.** For `O=C(Cc1ccc(Cl)cc1)NC(=S)Nc1ccccc1N1CCOCC1`, which Potency is on record?
**A.** inconclusive: 39.8 µM [inhibitor, full curve]

**Q.** `CN1C2=CC=CC=CC2=[N+](C)C12C=CC(=[N+]([O-])[O-])C=C2[N+](=O)[O-]` (stereo unspecified) was tested. Which Potency did it give?
**A.** active: 31.6 µM

**Q.** With `CCOCCCNS(=O)(=O)c1ccc(NC(=O)N2c3ccccc3Sc3ccccc32)cc1` as the compound, how does the Potency read?
**A.** inconclusive: 89.1 µM [inhibitor, single point]

**Q.** With `COc1ccc(-c2csc(NC(=O)c3ccc(S(=O)(=O)N4CCc5ccccc5C4)cc3)n2)c(OC)c1` as the compound, how does the “activity, negative = inhibition” value read?
**A.** inactive: 0.378%

**Q.** With `[O-]/C(=C(\C(=S)Nc1cccc2ccccc12)[n+]1ccccc1)c1ccc(Cl)s1` as the compound, how does the Potency read?
**A.** inconclusive: 14.1 µM [inhibitor, partial curve, poor fit]

**Q.** `O=C(CCn1c(=O)[nH]c2ccccc2c1=O)N1CCN(c2cccc(C(F)(F)F)c2)CC1` was tested. Which “activity, negative = inhibition” value did it give?
**A.** inactive: 10.3%

**Q.** How did the “activity, negative = inhibition” value turn out when `O=C1/C(=C/c2cccs2)COc2ccccc21` was run?
**A.** inactive: 5.79% [at 102 µM]

**Q.** With `CCn1cc(C(=O)N2CCc3ccccc32)c(=O)c2cc(S(=O)(=O)N3CC(C)CC(C)C3)ccc21` (stereo unspecified) as the compound, how does the Potency read?
**A.** inconclusive: 89.1 µM [inhibitor, single point]

Source: PubChem BioAssay AID504332 (National Center for Advancing Translational Sciences (NCATS), 2011)
